In all, about 2,700 sequences were measured (“arbitrary fluorescence units”: median about 4,100, highest 2% from about 54,000 on). Some of the results follow.

The values below come from the supplement of paper PMC10681739.

The target of the assay is T1, ETS1 (UniProt P14921).
T1 sequence: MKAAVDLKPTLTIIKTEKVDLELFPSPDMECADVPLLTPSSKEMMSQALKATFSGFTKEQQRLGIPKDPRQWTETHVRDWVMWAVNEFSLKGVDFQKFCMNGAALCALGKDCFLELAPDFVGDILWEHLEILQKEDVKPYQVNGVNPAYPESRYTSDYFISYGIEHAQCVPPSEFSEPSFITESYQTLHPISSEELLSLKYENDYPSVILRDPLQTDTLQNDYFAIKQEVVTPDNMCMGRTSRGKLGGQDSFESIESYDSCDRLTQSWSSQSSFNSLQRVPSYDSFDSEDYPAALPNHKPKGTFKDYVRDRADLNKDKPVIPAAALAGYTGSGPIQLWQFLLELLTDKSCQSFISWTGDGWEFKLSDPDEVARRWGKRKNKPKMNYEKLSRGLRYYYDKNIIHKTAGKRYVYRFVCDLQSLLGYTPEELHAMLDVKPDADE
The assay is described as follows: ETS1 binding intensity (PBM fluorescence) (arbitrary fluorescence units); higher = stronger binding. Particulars: ETS1 concentration 10 nM. As for the experimental part: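 gcPBM on wild-type 36-bp genomic probes with two neighbouring ETS1 sites (4-24 bp apart). Recombinant human ETS1 (10 nM) was detected with anti-ETS1 antibody fluorescence. Values are medians over 3 replicate spots. The probes sit in constant array flanks that are not printed.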
ACGTCGGAAATCTGCTGGGCAGGGAGATTTCCTCAA came in with an ETS1 binding intensity of 212.

CTTAGTTTCCTCTGGCGATGCTAAAGAGGAAGTTAC gave an ETS1 binding intensity of 2440.

Take AAGAAGGAAATAATGTCTTTGACTACAGGATATGGG: the ETS1 binding intensity was found to be 289.

Consider ACCCGCGCACTTCCGGAGAACGGGAAGGGGGCGTGG, for which the ETS1 binding intensity was found to be 34800.

Turning to GGGTGCTTCCGGGGCAGCGCGCGCCACTTCCGACCT, the ETS1 binding intensity stood at 33500.

In turn, TTTATTTCCTGTTATTACAAAGGCTTCAGGAAATCT displayed an ETS1 binding intensity of 32200.

The sequence CGGCGGAAGGAGCGGGCGGCGTGAGCGCTTCCGCCG had an ETS1 binding intensity of 811.

ATAAGAGCAAGACAGGAAGGAAGCCTGCTGTGTCGT: the ETS1 binding intensity turned out to be 708.

AGATGATTCACATCCTGGGCAGGATGGAGCTGGACA showed an ETS1 binding intensity of 5730.

ACGCCAGAATCTTCCGGCGTCTTTCCGGTGGTGGTC gave an ETS1 binding intensity of 10400.

CAGCTGCTCAGCTTCCTCCAAGGAAGTTGCCAATGC came in with an ETS1 binding intensity of 890.

The sequence TGGGGAAGCAGGATGAGCTCATTTCCTTTGTACCAA came in with an ETS1 binding intensity of 3180.

Take GAAACATTATTTCCTGTGATGTTTCCTGTGTGGGCC: the ETS1 binding intensity is 30900.

For the sequence CCCCTGCAGCCACTTCCTCAGGAAGTGAGCTCACCT, the ETS1 binding intensity is 5320.

GGTCCGGAAACGGGACAGAAGGCCCACCTTCCTCCC gave an ETS1 binding intensity of 8480.

Turning to TTAAGCAGGATGACAGCTCCAGTAACTTCCTCTTCC, the ETS1 binding intensity amounted to 626.

As for TGCTGCAGCCAGGAAAATACATTTCCGTGTGTTTTA, the ETS1 binding intensity was determined as 514.

As for TAGCTTGACTTCCTGTCTTTTATCATCCGCAATCTA, the ETS1 binding intensity was 49100.

In turn, CTCATCGTCATTTCCTGAGCCCTTCCTGGGTGAGAA registered an ETS1 binding intensity of 8880.

For AGATCGGGCAGGAAATGGGCACGGAAGCCCTGCAGT, the ETS1 binding intensity worked out at 11100.

Take GCGCCGCCCTTCCGCGTCTGCCCTTCCTGCCCTCTC: the ETS1 binding intensity turned out to be 1370.

TCAGGGTTTCCTGTGCAGAGAAGTCCTTCCTGTAAC gave an ETS1 binding intensity of 21500.

Regarding GCCCTAAACTCGCTTCCGGTTTCCTCTTCCCCAATG, the ETS1 binding intensity was 45300.

In turn, TCGTTTTTTTCCGCCAGTCTTGGCGGAAGCCTGAGA gave an ETS1 binding intensity of 424.

Take GAGGCCCGGAAGGGGCCAGGCGCGCTTCCGTCTCCG: the ETS1 binding intensity amounted to 2810.

In turn, AGAGCAAAACAGGATGCATTCAGGATGAACGTCTTT returned an ETS1 binding intensity of 2240.

In the case of CAAGACGCAGGAAAACCGCCCCCTTCCTGCGCTCCT, the ETS1 binding intensity was found to be 354.

As to GGATCAGGAAGTCACGACATGGCGACCATCCTGGCT, the ETS1 binding intensity was 1720.

Sequence AGTTGAGGAAATGAGGGAATTCTGACTTCCTCAGCC gave an ETS1 binding intensity of 1430.

GCTCAAAGGATGTGTACTGAAGAACATCCTGTACTG showed an ETS1 binding intensity of 3000.

Sequence ACGCTTTTCCGTTTTGCGTGCCTTTGTTTCCGCTCC returned an ETS1 binding intensity of 5260.

The sequence GTTTTAAGCAGGAAACGGCGCAGGAAAGGAGGTGTC showed an ETS1 binding intensity of 2650.

With GGCGCGGATACCGAGGCCTGCGGGGGACATCCGCCG, the ETS1 binding intensity was 230.

GCGCCGCCTCAGTTCCGCGGCTTCCGGCCACAGAGT yielded an ETS1 binding intensity of 8030.

Consider TGAAGGCTTCCGCCAAGGTGAGGGGCTTCCTCTGGG, for which the ETS1 binding intensity was determined as 9460.

Sequence TGAGTCACACAGGATGTAAACATCCTACTTTGGCCT came in with an ETS1 binding intensity of 5490.

Sequence TGGTAACAGGCATTTCCGGTTTCCGGCCGGCTCCCT showed an ETS1 binding intensity of 61800.

As to ATGGTTCCAGCCGGAAAAAGAGGAAGTTGGCGCATG, the ETS1 binding intensity was 923.

For CCTGCCCGGAAAAGAAGGAGTTCTGGGAAATGTAGT, the ETS1 binding intensity was found to be 484.

Consider CCCCAACATATTCCGGCCTTCTGGGAAATGTAGTTC, for which the ETS1 binding intensity worked out at 755.

For AGGCCGAGGTAGGATGTTTACATCCTGTGTGACTCA, the ETS1 binding intensity worked out at 6360.

As to AGGGAGGCTTCCTGTGAGGCCCACTTCCTGTGAAGC, the ETS1 binding intensity was determined as 17000.

As for TTCTGTTGGCTTCCTCCAATGCAGGATGTTAGCTTC, the ETS1 binding intensity is 1100.

Regarding AGACTTCCTCTGCCTCCCGGGGGTTGGTTTCCTCAT, the ETS1 binding intensity was 21700.

TTCAGACCTCGGCTTCCTACTTCCGCCGCTCTCGCG registered an ETS1 binding intensity of 6920.

Sequence CGTGGTTTCCCGGGTGATGGCCACGCGGAAGAGGTG had an ETS1 binding intensity of 607.

ACCCCCGGAAGCCCCAGCAATCCTCAGGGAAGTGGG displayed an ETS1 binding intensity of 3870.

GAAGGGGCCGGATGCAGACGAACGTTCCGGCGGCTC gave an ETS1 binding intensity of 3900.

ACAGAGAAGAAGGAAACTCACTTCCTGTCGTCGCAG showed an ETS1 binding intensity of 15400.

AGAAGGCTCCAGGAAGCCAGCTTCCTCCCTCCGCCC had an ETS1 binding intensity of 1300.

TGAAAGGGGACTTCCTGACCCAGGATGTGGCATGGT: the ETS1 binding intensity was 6130.

The sequence AGCACATGTTCAGGATGAGTCATCCATTTCCTGCCA came in with an ETS1 binding intensity of 1260.

CGCTGCTTCCGGGTCTCGGCAAGCACTTCCGGGGTG showed an ETS1 binding intensity of 30400.

The sequence ACTTGCCGCGGATACCCAGCCAGCGGAAGTGCGGTT gave an ETS1 binding intensity of 1280.

In turn, CACCCCGCCTTCCTCCCCAGGTGTTTCCGGAGCTCG registered an ETS1 binding intensity of 1820.

AGTTCATCCTGGGAGCTGCTGCGGGTTCTTCCGGGA: the ETS1 binding intensity worked out at 1010.

With CGCACGCCGCCACTTCCGCTTCCGTCCGTGCTGCGG, the ETS1 binding intensity was determined as 27600.

GAGAGCGGAAGCGGGCGAAAACGAGACTTCCGGTGC returned an ETS1 binding intensity of 27700.

ACAAAGTCCCACATCCTGACAGGAAACAGCCTCCAT: the ETS1 binding intensity is 9170.

Consider CACCCCGGAAGCGCTCGCCGCCGACCAGGAAGAAGA, for which the ETS1 binding intensity was 8970.

The sequence AGCTGCGGCTTCCTGCCTCAGGCAGGATGTACCAAA returned an ETS1 binding intensity of 18200.

In turn, GCTGAGTCATTTCCCATGCCACTTCCGGTGCCATGG came in with an ETS1 binding intensity of 39000.
